The source of these data is article PMC12136788.

This is one part of the list.

The chains are these.
B1: chr19:51872534:51873706:-|CDS|ENSG00000161551|control|control|control (ssRNA)
RNA: GGGAGUUCUACAGUCCGACGAUCCCUAGUGGGCAGAAAUGUAGUGAUUGUGGAACAACCUUUUCCAAGAAAUCAAGCCUUUGUAGUUAAUCAGGAAUUUGAACAGAGAAUAAGCCUCACAAAUGAAGUGAAUGUGGCCCCAUCCAACAGAGGAUUGAGCAUCA
B2: chr16:3727180:3727281:-|3pUTR|ENSG00000005339|msi1|FALSE|bound_elsewhere (ssRNA)
RNA: GGGAGUUCUACAGUCCGACGAUCAAUGCAAGCUUAUAAUGUAUCCCGAUAACUUUGUGAUGUUUCGGGAAGAUUUUUUUCUAUAGUGAACUCUGUGGGCGUCUCCCAGUAUUACCCUGGAUGAUAGGAAUUGACUCCGGCGUGCAACAGAGGAUUGAGCAUCA
B3: chr6:11183298:11183399:-|3pUTR|ENSG00000111859|msi1|FALSE|unique (ssRNA)
RNA: GGGAGUUCUACAGUCCGACGAUCACAUUUCACAUUUUUAAAACCAAAUGUUCAAUCUGUAUUACUCUUUGCCGUCUUGUAUGUAGAGGCUAUUUUUAAAUCAUUAAAUUUUUAGAUCUCUGUUUUCAUAGCCACUGGGUUUUCCAACAGAGGAUUGAGCAUCA
B4: chr10:128098031:128098192:-|3pUTR|ENSG00000148773|msi1|total|mutant (ssRNA)
RNA: GGGAGUUCUACAGUCCGACGAUCCAUCUUCAUUUACUUUCCACUUUGCCCCCUGUCCUCUCUGUGUUCCCCAAAUCAGAGAACCGCCCGCCAUCCCCCAGGUCACCUGUCUGGAUUCCUCCCCAUUCACCCACCUUGCCAGGUCAACAGAGGAUUGAGCAUCA
B5: chr13:25097967:25098071:+|CDS|ENSG00000151846|unk|FALSE|unique (ssRNA)
RNA: GGGAGUUCUACAGUCCGACGAUCAGAACUUCUUUAUAUGCUCGAGUCUCCAGAGUCACUCCGUUCUAAGGUUGAUGAAGCUGUAGCUGUACUACAAGCCCACCAAGCUAAAGAGGCUACCCAGAAAGCAGUUAACAGUGCUACCAACAGAGGAUUGAGCAUCA
B6: chr3:149172415:149172516:+|3pUTR|ENSG00000163755|unk|total|mutant (ssRNA)
RNA: GGGAGUUCUACAGUCCGACGAUCUUACCGUGCCGUGGUAACUAUUCACUUCUUAAUUUAUGACCUCAAUCAAUUUAAUUGUCCCGAAUGUAAAAAGUCUUUAAGACAUAAGAAUUCCUCAAAGAAGCCAUACAUUUUUUAAGGCAACAGAGGAUUGAGCAUCA
B7: chr1:21603657:21603912:-|CDS|ENSG00000076864|control|control|control (ssRNA)
RNA: GGGAGUUCUACAGUCCGACGAUCAUUGCUUAUUCCUGGGAAAAGUGCGAGUAGAUUCGGACGCCGGGGCAGUGCCAUAGGCAUAGGAACCGUGGAAGAGGUUGUCGUCCGCGGGGCCGCCGGCUCUGGAGGCUGCCUGCACGCCAACAGAGGAUUGAGCAUCA
B8: chr5:128187618:128187661:+|3pUTR|ENSG00000064651|msi1_unk|FALSE|overlapping (ssRNA)
RNA: GGGAGUUCUACAGUCCGACGAUCUCCUUUAUAAGUCAUUAAAAUAAUGUUUCAUCAAAUGGUUAAAUGGACCACUGGUUUCUUAGAGAAAUGUUUUUAGGCUUAAUUCAUUCAAUUGUCAAGUACACUUAGUCUUAAUACACUCAACAGAGGAUUGAGCAUCA
B9: chr5:36975901:36976008:+|CDS|ENSG00000164190|unk|total|mutant (ssRNA)
RNA: GGGAGUUCUACAGUCCGACGAUCAUGAAAUCCGGCAAGGAUGAAAAAGAGCAGAGUGAGAAAGCGGCAAUGUAUGAUAUAAUCCGUUCUCCAUCCAAGGACUCUACUAAACUUACAUUAAGACUUUCUCGUGUAAGGUCUUCACAACAGAGGAUUGAGCAUCA
B10: chr3:115809552:115809653:-|3pUTR|ENSG00000185565|unk|FALSE|unique (ssRNA)
RNA: GGGAGUUCUACAGUCCGACGAUCCUCCCUCACCUCUCCUCACCUCCACCCCCUCCCCAGAGCACUAGUCAUGCCGCAAAUGCUAGGAAGUGCCAUUUUCAUUUUCUCCACUGUGCGUGUGUGCUCAAGUCUUUCGCUCUCACGCAACAGAGGAUUGAGCAUCA
B11: chr12:2800410:2800520:+|CDS|ENSG00000004478|unk|total|mutant (ssRNA)
RNA: GGGAGUUCUACAGUCCGACGAUCAAAUACAAGCAAGCUUUACUACAGUAUAAGAAGAUCGUGUCUUGGCUGGAAUAUGAGUCCCGUUUUUCCAAUGAGGAAGCACAGAAAGCACAGGCCCUUCGACUGGCCUCUCACCUCAACCAACAGAGGAUUGAGCAUCA
B12: chr12:71139710:71139848:-|CDS|ENSG00000127324|control|control|control (ssRNA)
RNA: GGGAGUUCUACAGUCCGACGAUCUUUUGGUUCUGAAGAUGUAGGCUCUAGCUCCUACGUUGCUGUGGACAUAUUGAUUGCUGUAGGUGCCAUCAUCAUGAUUCUGGGCUUCCUGGGAUGCUGCGGUGCUAUAAAAGAAAGUCGCAACAGAGGAUUGAGCAUCA
B13: ENSG00000142669:stop:overlap|stop_codon|ENSG00000142669|stop_codon|NA|stop_codon (ssRNA)
RNA: GGGAGUUCUACAGUCCGACGAUCAGUACUGUGGGGUAUGGGCUGGGGGACGGGGGGGUGGGGGGAGUGUUGGAAGAGGACUCUAGCCAGGGUCAUAUCUGCCACAAAGCACUUGGGCCCCCUGCAUUCAGGUGACCACCCCUCCAACAGAGGAUUGAGCAUCA
B14: ENSG00000188706:stop:overlap|stop_codon|ENSG00000188706|stop_codon|NA|stop_codon (ssRNA)
RNA: GGGAGUUCUACAGUCCGACGAUCAAGAGAUGCCACCUCCAGAGCCCCCAGAGCCACCACAGGAGGCAGCUGAAGCUGAGAAGUAGCCUAUCUAUGGAAGAGACUUUUGUUUGUGUUUAAUUAGGGCUAUGAGAGAUUUCAGGUCAACAGAGGAUUGAGCAUCA
B15: chr22:21763623:21763656:-|3pUTR|ENSG00000100030|msi1_unk|FALSE|overlapping (ssRNA)
RNA: GGGAGUUCUACAGUCCGACGAUCGUGCUUCCGUCUCCGGAAUCCUUGGGGAGCACUUGUCCACGUCUUUUCUCAUAUCAUGGUAGUCACUAACAUAUAUAAGGUAUGUGCUAUUGGCCCAGCUUUUAGAAAAUGCAGUCAUUUCAACAGAGGAUUGAGCAUCA
B16: chr17:78853230:78853302:-|3pUTR|ENSG00000035862|msi1_unk|FALSE|overlapping (ssRNA)
RNA: GGGAGUUCUACAGUCCGACGAUCCUCUUCUCCUAUUUUCAUCCUGCAAGCAACUCAAAAUAUUUAAAAUAAAGUUUACAUUGUAGUUAUUUUCAAAUCUUUGCUUGAUAAGUAUUAAGAAAUAUUGGACUUGCUGCCGUAAUUCAACAGAGGAUUGAGCAUCA
B17: chr17:61865808:61865921:-|3pUTR|ENSG00000108506|unk|FALSE|unique (ssRNA)
RNA: GGGAGUUCUACAGUCCGACGAUCUUCUAUGAGAAUGAGUUUGUAGCUGUUUCAAAUCAUGAAGUGCAUAGUAUCACAUGUGAUAGAAUAUUUAUAACUUUUUAUUAGAUGCUUAAUGUUCAAUUAAGUAAUUUUGAUGUGAAACAACAGAGGAUUGAGCAUCA
B18: chr8:144773268:144774605:-|CDS|ENSG00000196378|control|control|control (ssRNA)
RNA: GGGAGUUCUACAGUCCGACGAUCCACCAGAGGAUUCACACUGGGGAGAAACCCUACAAGUGUGGGGAGUGUGGGAAGCACUUUAGCGCCUACUCUUCCCUGAUUUAUCACCAGAGAAUCCACACCGGAGAGAAACCCUAUAAACAACAGAGGAUUGAGCAUCA
B19: chr19:18196783:18197469:-|three_prime_utr|ENSG00000105649|control|control|control (ssRNA)
RNA: GGGAGUUCUACAGUCCGACGAUCACUACCCGGGCCUGACCCGGCCCCUACCAGCCACGGGCACAAGACCCCUGCUCCUGACUUAGCCCGUCACCCUUAUUUAUUAUUGUAGCUAUUUAUUUAUUUAUUGAAGAUGUCCCCCAGCAACAGAGGAUUGAGCAUCA
B20: chr12:57516587:57516808:-|three_prime_utr|ENSG00000175197|control|control|control (ssRNA)
RNA: GGGAGUUCUACAGUCCGACGAUCCCCCCACUUGGGCCACACUACCCACCUUUCCCAGAAGUGGCUACUGACUACCCUCUCACUAGUGCCAAUGAUGUGACCCUCAAUCCCACAUACGCAGGGGGAAGGCUUGGAGUAGACAAACAACAGAGGAUUGAGCAUCA
B21: chr5:137752703:137752764:-|3pUTR|ENSG00000177733|msi1_unk|total|mutant (ssRNA)
RNA: GGGAGUUCUACAGUCCGACGAUCGGGAGGGAGUGAACUUGCUGAUUCUGCCGCAAAACCUGGGUGGGGGUUGGGGUGGGGGGCCGUUUACUUUGUUGUAAGGACUUGAUAACCUGGCUACAGCGUUUUCUAUGAAAUCUACUUCAACAGAGGAUUGAGCAUCA
B22: chr4:54297753:54297953:+|3pUTR|ENSG00000134853|msi1|FALSE|unique (ssRNA)
RNA: GGGAGUUCUACAGUCCGACGAUCUUUUUAUGAUGACAAUCAAAGCCGGCCUGAGAAACACUAUUUGUGACUUUUUAAACGAUUAGUGAUGUCCUUAAAAUGUGGUCUGCCAAUCUGUACAAAAUGGUCCUAUUUUUGUGAAGACAACAGAGGAUUGAGCAUCA

For this assay, the target named is MSI1 full-length (mouse, UniProt Q61474 1-362). The assay is described as follows: nsRBNS (natural sequence RNA bind-n-seq); RBNS binding buffer (assumed for nsRBNS): 25 mM Tris pH 7.5, 150 mM KCl, 3 mM MgCl2, 0.01% Triton X-100, 500 ug/ml BSA, 20 U/ml SUPERase-In, 4 C; UNK is unkempt and MSI1 is Musashi-1; names of the RNAs are library labels; protein concentration not given here; high values mean tight binding.
UniProt Q61474, sequence (Q61474 whole entry): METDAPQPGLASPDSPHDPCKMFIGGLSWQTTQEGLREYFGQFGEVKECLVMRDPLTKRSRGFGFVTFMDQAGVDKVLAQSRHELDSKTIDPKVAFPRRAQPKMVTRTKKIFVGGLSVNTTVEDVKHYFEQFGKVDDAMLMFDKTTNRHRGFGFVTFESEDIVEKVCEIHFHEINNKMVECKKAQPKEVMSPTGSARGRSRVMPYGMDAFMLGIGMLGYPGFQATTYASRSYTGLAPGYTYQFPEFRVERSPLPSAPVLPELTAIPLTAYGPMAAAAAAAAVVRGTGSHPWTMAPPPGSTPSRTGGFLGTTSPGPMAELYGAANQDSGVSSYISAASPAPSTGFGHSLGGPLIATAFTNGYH
Regarding B1, the binding signal stood at 1.45 enrichment R.

Turning to B2, the binding signal turned out to be 0.573 enrichment R.

The molecule B3 displayed a binding signal of 2.37 enrichment R.

As to B4, the binding signal is 1.07 enrichment R.

Molecule B5 came in with a binding signal of 0.377 enrichment R.

In the case of B6, the binding signal turned out to be 0.742 enrichment R.

The molecule B7 came in with a binding signal of 0.478 enrichment R.

B8 had a binding signal of 15.5 enrichment R.

B9 gave a binding signal of 0.273 enrichment R.

B10 showed a binding signal of 0.88 enrichment R.

For the molecule B11, the binding signal was 0.381 enrichment R.

B12 showed a binding signal of 0.324 enrichment R.

For the molecule B13, the binding signal stood at 0.5 enrichment R.

Consider B14, for which the binding signal came to 0.544 enrichment R.

In turn, B15 registered a binding signal of 0.893 enrichment R.

Molecule B16 gave a binding signal of 3.7 enrichment R.

With B17, the binding signal amounted to 5.16 enrichment R.

In turn, B18 returned a binding signal of 0.316 enrichment R.

Take B19: the binding signal was found to be 48.8 enrichment R.

B20: the binding signal worked out at 0.549 enrichment R.

In the case of B21, the binding signal amounted to 0.73 enrichment R.

With B22, the binding signal turned out to be 0.329 enrichment R.
